Results from PMC4336329 (PLoS ONE, 2015).
About 2,200 (0.71%) of roughly 310,000 compounds showed an effect of 50% or more. The effect is printed as a negative number. This is one part of the list.

target: human ether-à-go-go-related gene (hERG) potassium channel (human, UniProt Q12809); experiment: primary screen, population patch clamp on CHO cells stably expressing hERG
Sequence (Q12809 whole entry, looked up): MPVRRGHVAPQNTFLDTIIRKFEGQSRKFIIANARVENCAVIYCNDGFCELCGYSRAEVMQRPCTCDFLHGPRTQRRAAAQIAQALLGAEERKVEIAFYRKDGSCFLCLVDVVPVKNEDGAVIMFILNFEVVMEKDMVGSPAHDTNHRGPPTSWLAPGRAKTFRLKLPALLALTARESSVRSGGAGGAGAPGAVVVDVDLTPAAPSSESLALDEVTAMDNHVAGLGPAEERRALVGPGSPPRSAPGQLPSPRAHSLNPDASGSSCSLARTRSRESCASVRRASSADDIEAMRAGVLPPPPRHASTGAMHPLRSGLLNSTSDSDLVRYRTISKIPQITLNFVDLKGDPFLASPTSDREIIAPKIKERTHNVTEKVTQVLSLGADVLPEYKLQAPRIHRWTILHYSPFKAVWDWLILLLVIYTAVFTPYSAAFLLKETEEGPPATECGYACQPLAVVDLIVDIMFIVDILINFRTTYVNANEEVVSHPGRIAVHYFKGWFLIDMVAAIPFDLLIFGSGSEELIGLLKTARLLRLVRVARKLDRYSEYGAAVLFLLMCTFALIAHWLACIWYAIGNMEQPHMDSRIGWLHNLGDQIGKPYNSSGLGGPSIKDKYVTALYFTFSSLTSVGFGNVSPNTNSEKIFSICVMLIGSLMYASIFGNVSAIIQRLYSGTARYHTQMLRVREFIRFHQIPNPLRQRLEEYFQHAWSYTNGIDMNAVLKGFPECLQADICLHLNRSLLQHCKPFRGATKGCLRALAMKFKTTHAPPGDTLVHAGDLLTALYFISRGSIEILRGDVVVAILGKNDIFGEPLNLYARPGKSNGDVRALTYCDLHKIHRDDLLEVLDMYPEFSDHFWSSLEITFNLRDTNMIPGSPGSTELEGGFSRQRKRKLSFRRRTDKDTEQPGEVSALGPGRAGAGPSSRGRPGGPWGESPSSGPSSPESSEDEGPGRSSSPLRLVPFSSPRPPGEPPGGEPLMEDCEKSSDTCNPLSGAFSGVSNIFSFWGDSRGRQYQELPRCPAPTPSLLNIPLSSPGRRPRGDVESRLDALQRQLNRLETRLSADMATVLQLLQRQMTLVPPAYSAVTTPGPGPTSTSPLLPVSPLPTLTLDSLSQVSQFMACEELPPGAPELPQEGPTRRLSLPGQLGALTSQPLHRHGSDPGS

Compound	hERG current change (%, negative = inhibition) at 1uM
O=C(CN1C(=O)S/C(=C\c2ccccc2)C1=O)NC1CCS(=O)(=O)C1 (centres unmarked)	10.1%
COc1ccc(OC)c(C(=O)c2ccc(C(=O)Nc3ccc4ccccc4c3)cc2)c1	11.5%
Cc1ccc(NC(=O)CSc2nnc(C3CC3)n2C)cc1S(=O)(=O)N1CCCCC1	8.55%
COCc1nnc(NC(=O)c2cc(OC)c(OC)cc2[N+](=O)[O-])s1	2.64%
Cc1ncc(N=Nc2ccccc2Cl)c(-c2ccccc2)n1	4.61%
CC(C)(C)NC(=O)CN(Cc1cccs1)C(=O)CN1C(=O)C(=O)c2ccccc21	6.95%
COc1ccc(C(=O)OCC(=O)Nc2ccc(F)c(F)c2F)cc1OC	-19.3%
Cn1cc(/C=C2\SC(=S)N(N3CCOCC3)C2=O)c2ccccc21	13.8%
CCCN(CC(=O)Nc1cc(Cl)ccc1Cl)C(=O)/C=C/c1ccco1	1.79%
Cc1cccc(C(=O)N2CCN(S(=O)(=O)N3CCCCCC3)CC2)c1	8.87%
COc1ccc(OCC(O)CNc2ccc(Br)cc2)cc1 (centres unmarked)	13.3%
CCOc1cc(N2CCOCC2)c(OCC)cc1NC(=O)CCC1CCCC1	8.21%
COc1ccc(OC)c(C2C(C(=O)Nc3nc4ccccc4s3)=C(C)NC3=C2C(=O)CCC3)c1 (centres unmarked)	13.3%
S=C(NCCc1ccccc1)NCC1CCCO1 (centres unmarked)	5.58%
Cc1ccc(NC(=O)CSc2nnc(CCNC(=O)OC(C)(C)C)o2)c(C)c1	-6.04%
O=C(Nc1ccc2c(c1)OCO2)C1CCCN1C(=O)Nc1cccc(F)c1 (centres unmarked)	-13.3%
CCN(CC)C1=C(Cl)C(=O)C(Cl)C12OCCO2 (centres unmarked)	12.1%
CN(CC(=O)Nc1c(Cl)cccc1Cl)C(=O)CCCN1C(=O)c2ccccc2C1=O	14.8%
CCCCCCC(=O)Nc1ccc(C(=O)N2CCCC2)cc1	4.94%
Cn1cccc1C(=O)Nc1nccs1	11.4%
Cc1cccc(NC(=O)c2cc(S(=O)(=O)NCc3ccco3)ccc2F)c1C	4.22%
Cc1cc2c(c(=O)n1CC1CCCO1)C(c1ccco1)C(C#N)=C(N)O2 (centres unmarked)	13.1%
O=C1NC(=S)S/C1=C\c1cc2ccccc2nc1N1CCCCC1	8.93%

Compound	hERG current change (%, negative = inhibition) at 1uM
CCOC(=O)N1CCN(S(=O)(=O)c2cc(Cl)c(OC)cc2Cl)CC1	15.5%
COc1ccc(NC(=O)CC2C(=O)N(c3ccc(OC)cc3)C(=O)N2CCc2cccs2)cc1 (centres unmarked)	7.3%
COc1ccc(-c2cn[nH]c2-c2ccc(OCc3ccc([N+](=O)[O-])cc3)cc2O)cc1	-0.406%
CCOC(=O)CC(NC(=O)c1cc2ccccc2oc1=O)c1cccc([N+](=O)[O-])c1 (centres unmarked)	8.81%
O=C(Nc1c2c(nn1-c1ccccc1)CS(=O)C2)c1ccc2c(c1)OCO2 (centres unmarked)	4.15%
CCOC1(c2ccccc2)OC(=O)c2ccccc21 (centres unmarked)	7.3%
COc1cc(CNS(=O)(=O)c2ccc3c(c2)CC(C)N3C(=O)C2CCC2)cc(OC)c1OC (centres unmarked)	0.406%
COc1ccc(OC)c(C(=O)c2ccc(C(=O)c3cc(OC)ccc3OC)cc2)c1	4.89%
N#Cc1cccc(NC(=O)CCNS(=O)(=O)c2ccc3[nH]c(=O)oc3c2)c1	15.8%
CC1CCCCC1NC(=O)CCS(=O)(=O)c1cccc2nonc12 (centres unmarked)	4.02%
COc1cccc(NC(=S)N(Cc2ccco2)C(C)c2ccco2)c1 (centres unmarked)	6.13%
COc1ccc(NC(=O)COC(=O)c2cc(C)oc2C)c([N+](=O)[O-])c1	10.5%
COc1cc(OC)cc(C(=O)NCC(=O)OC2CCOC2=O)c1 (centres unmarked)	13.3%
CC(=O)Nc1ccc(C(=O)N2CCCC2)cc1	4.31%
CC(C)Oc1ccc(S(=O)(=O)N2CCCCC2)cc1NC(=O)C1CCC1	2.97%
COc1cccc(-c2nn(-c3ccccc3)cc2C(=O)O)c1	-1.16%
CN(C)CCCOC(=O)COc1ccc(Br)cc1.Cl	7.14%
Cn1nnnc1NCc1cccc(Cl)c1	9.85%
CCOC(=O)c1ccc(NC(=O)Nc2c(C)nn(C)c2C)cc1	-2.18%
Cc1nn(CC(=O)Nc2ccc(Cl)cn2)c(C)c1[N+](=O)[O-]	1.51%
Cc1cc(C)nc(N2N=C(C(C)(C)C)CC2=O)n1	7.41%
Cc1ccc(OP(=O)(Nc2c(C)n(C)n(-c3ccccc3)c2=O)Oc2ccc(C)cc2)cc1	3.15%
Cc1cccc(C)c1NC(=O)C1CCCN1C(=O)NCc1ccccc1 (centres unmarked)	16.6%

Compound	hERG current change (%, negative = inhibition) at 1uM
Cc1ccc(Cl)cc1NC(=O)C(Cc1ccccc1)N1C(=O)C2C3CCC(C3)C2C1=O (centres unmarked)	3.55%
Cc1nc2c3cc(Cl)ccc3n(CCN3CCCCC3)c2s1.Cl	-32.6%
CC1S/C(=N/N=C2CCC(C(C)(C)C)CC2)NC1=O (centres unmarked)	4.23%
CCOC(=O)c1ccccc1NC(=O)C1CCN(c2ncnc3sc(C)c(C)c23)CC1	9.88%
Cc1occc1C(=O)NC(C)C1CCCO1 (centres unmarked)	2.36%
CCCc1cc(C(=O)Nc2sc3c(c2C(=O)OCC)CCCC3)no1	8.91%
Cn1c(SCc2c(Cl)cccc2Cl)nc(C(F)(F)F)cc1=O	4.74%
COc1ccc([C@H]2[C@H](C(=O)OC(C)(C)C)N3N=Cc4ccccc4C3C23C(=O)c2ccccc2C3=O)c(OC)c1 (some centres unmarked)	16%
O=C(Nc1cccnc1)C1CCCN(S(=O)(=O)c2ccccc2)C1 (centres unmarked)	-4.7%
COc1ccc(C(=O)NCC(=O)NCC(=O)OCC(=O)C(C)(C)C)cc1	15.2%
Cc1cccc(-c2noc(CCCC(=O)N3CCOCC3)n2)c1	9.5%
O=C(NCc1ccccc1)C1CCCN1S(=O)(=O)c1ccc(F)cc1 (centres unmarked)	16.2%
Cc1ccc2cn[nH]c2c1[N+](=O)[O-]	5.43%
O=C(c1ccc(Br)cc1)N(Cc1nc2ccccc2c(=O)[nH]1)C1CCCC1	7.89%
Cc1cc(CC(C)C)n(-c2nc3ccccc3c(=O)n2OCC(=O)N(C)C)n1	7.81%
COc1ccccc1/C=C/C(=O)OCCN1CCOCC1.Cl	5.39%
O=C(Nc1ccccc1)C1=C[C@@H](c2ccccc2)C[C@@H](OCc2ccc(CO)cc2)O1	11.9%
O=C(OCCc1cc2ccccc2c(=O)o1)N1CCOCC1	16.1%
CCC(=O)Nc1ccc(NC(=O)c2oc3ccccc3c2C)cc1	9.2%
COc1ccccc1NC(=S)NC1CCCC1	14.8%
CC1(C)CC(NC(=O)COc2ccc3ccccc3c2)CC(C)(C)N1	18%
O=C(/C=C/c1ccc(Br)cc1)c1ccco1	9.68%
CC1CCCN(CC(=O)Nc2ccc(S(=O)(=O)N3CCCCC3)cc2)C1 (centres unmarked)	7.51%

Compound	hERG current change (%, negative = inhibition) at 1uM
Cc1ccc2nc(-c3ccccc3)cc(C(=O)N3CC(C)OC(C)C3)c2c1 (centres unmarked)	11.4%
Cc1cc(C(=O)N2CCOCC2)c(C)o1	3.12%
CC(C)(C)NC(=S)NNC(=O)c1ccc2ncccc2c1	6.92%
CCOC(=O)C1CCCN(C(=O)c2ccccc2Oc2ccccc2)C1 (centres unmarked)	5.92%
COCCNC(=S)N/N=C(\C)c1ccc2cc(OC)ccc2c1	20.6%
CN(C)c1nc(N(C)C)nc(N2CC(=O)N(c3ccccc3)C2=N)n1	9.67%
CC(SCc1ccccc1)C(=O)Nc1ccccc1-c1ccccc1 (centres unmarked)	-6.58%
COc1ccc(-c2noc(N3CCC(C(=O)Nc4ccc(F)cc4F)CC3)n2)cc1	-5.2%
Cc1[nH]c2ccccc2c1C(=O)C(=O)NCc1ccncc1	15.4%
C[C@@H]1C(=O)O[C@H]2[C@H](O)[C@@]34[C@H]5C[C@@H](C(C)(C)C)[C@]36[C@@H](OC(=O)[C@@H]6O)O[C@@]4(C(=O)O5)[C@@]12O	15.7%
CC(=O)c1ccc(OC(=O)CCN2c3ccccc3Sc3ccccc32)cc1	17%
COc1ccc(CN2CCNC(=O)C2CC(=O)NCCC2=CCCCC2)c(F)c1 (centres unmarked)	-8.51%
CCOC(CNC(=O)CN1C(=O)COc2ccc(S(=O)(=O)N3CCOCC3)cc21)OCC	17.6%
COc1cccc(NC(=O)NC2CCCc3ccccc32)c1 (centres unmarked)	-7.42%
CN(C(=O)COC(=O)CNC(=O)CNC(=O)c1ccc(Cl)cc1Cl)c1ccccc1	17%
O=C(CC(=O)NC1CCCCC1)N/N=C/c1ccc(Cl)cc1	4.6%
O=C(NC1CCCCC1)c1ccc(CS(=O)Cc2ccccc2Cl)o1 (centres unmarked)	5.07%
COc1ccc(S(=O)(=O)N2CCN(C)CC2)cc1NC(=O)c1ccccc1F	13.2%
O=C(O)c1nn(Cc2ncc(-c3cccc(Cl)c3)o2)c(=O)c2ccccc12	2.72%
CCN(CC)S(=O)(=O)c1ccc2c(c1)N(CC(=O)NCC1CCCO1)C(=O)CO2 (centres unmarked)	12.1%
